Reference: the supplement of paper PMC8285479
Structures can show the parent of a compound that is named as a salt. ± gives the standard deviation of the averaged measurements. Over roughly 1,900 compounds, “normalised cell viability (NPI; 0 = phenylarsine oxide control, 1 = DMSO control)” has its median near 1; the lowest 2% begin near 0.039. Some of the results follow.

Tested on: NCI-H1944
Test: normalised cell viability (NPI; 0 = phenylarsine oxide control, 1 = DMSO control) (fraction of DMSO control); NCI-H1944 is a non-small cell lung cancer line; higher = more viable cells (less compound toxicity)
Conditions: 6 days
[1] = glucocorticoid arm: hydrocortisone 2.75 uM co-treatment, compound 1 µM
[2] = glucocorticoid arm: hydrocortisone 2.75 uM co-treatment, compound 5 µM
[3] = glucocorticoid arm: hydrocortisone 2.75 uM pre-treated 2 days and continued, compound 1 µM
[4] = glucocorticoid arm: hydrocortisone 2.75 uM pre-treated 2 days and continued, compound 5 µM
[5] = glucocorticoid arm: vehicle, compound 1 µM
[6] = glucocorticoid arm: vehicle, compound 5 µM
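Further: CTB read-out in 384-well plates, mean of triplicate wells, normalised per plate against 1 µM phenylarsine oxide and 0.1% DMSO, compounds added 24 h after seeding.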

| Compound | normalised cell viability [1] | normalised cell viability [2] | normalised cell viability [3] | normalised cell viability [4] | normalised cell viability [5] | normalised cell viability [6] |
| --- | --- | --- | --- | --- | --- | --- |
| CC(=O)NCCc1c[nH]c2ccccc12 [N-Acetyltryptamine] | 0.992 ± 0.0076 | 0.9637 ± 0.0081 | 0.981 ± 0.008 | 0.9655 ± 0.0064 | 0.972 ± 0.014 | 0.9783 ± 0.0058 |
| C=CCN1CC[C@]23CCCC[C@H]2[C@H]1Cc1ccc(O)cc13 [Levallorphan tartrate] | 1 ± 0.0089 | 1 ± 0.023 | 1.003 ± 0.0058 | 1.06 ± 0.064 | 0.9917 ± 0.0025 | 0.863 ± 0.23 |
| CCCN1CC[C@@H]2c3cc(O)ccc3CC[C@@H]21 (racemic) [cis(+/-)-8-OH-PBZI hydrobromide] | 0.993 ± 0.011 | 0.975 ± 0.021 | 1.01 | 1.02 ± 0.092 | 0.9937 ± 0.0071 | 1.007 ± 0.0058 |
| Cc1cc2c(C(C)C)c(O)c(O)c(C=O)c2c(O)c1-c1c(C)cc2c(C(C)C)c(O)c(O)c(C=O)c2c1O | 0.988 ± 0.015 | 0.618 ± 0.12 | 0.99 ± 0.01 | 0.814 ± 0.04 | 0.9927 ± 0.0075 | 0.8493 ± 0.0076 |
| O=c1[nH]c2ccccc2n1C1CCN(CCCC(c2ccc(F)cc2)c2ccc(F)cc2)CC1 [Pimozide] | 1.017 ± 0.0058 | 1.04 ± 0.021 | 1.02 | 1.04 ± 0.01 | 1.013 ± 0.0058 | 1.02 ± 0.017 |
| CN1CCN(c2nc3ccccc3nc2Cl)CC1 | 1.027 ± 0.0058 | 0.999 ± 0.0096 | 1.003 ± 0.0058 | 1.01 | 1.007 ± 0.0058 | 1.01 |
| CN(C)C(=O)Oc1ccc[n+](C)c1 [Pyridostigmine Bromide] | 0.9867 ± 0.0038 | 0.9567 ± 0.0076 | 1.001 ± 0.009 | 0.978 ± 0.016 | 0.983 ± 0.01 | 0.998 ± 0.0017 |
| CN(C)C(=O)Oc1ccc[n+](C)c1 [Pyridostigmine bromide] | 1.007 ± 0.0058 | 1.01 ± 0.015 | 1.01 ± 0.026 | 1.01 ± 0.01 | 1.007 ± 0.0058 | 0.999 ± 0.01 |
| N[C@H](C(=O)O)c1cc(O)no1 (racemic) [(±)-Ibotenic acid] | 1.002 ± 0.0072 | 1 ± 0.032 | 0.991 ± 0.024 | 1.04 ± 0.096 | 0.9837 ± 0.0055 | 0.987 ± 0.012 |
| CCc1c(C(=O)OC)ncc2[nH]c3cc(OC)c(OC)cc3c12 [Methyl 6,7-dimethoxy-4-ethyl-beta-carboline-3-carboxylate] | 1.01 ± 0.016 | 1.023 ± 0.0058 | 1.01 ± 0.01 | 1.03 ± 0.01 | 0.9997 ± 0.0091 | 1.003 ± 0.0058 |
| N#CC(C#N)=Cc1ccc([N+](=O)[O-])c(O)c1 [Tyrphostin AG 126] | 1.007 ± 0.0058 | 0.988 ± 0.035 | 0.997 ± 0.015 | 1.02 ± 0.01 | 1.013 ± 0.0058 | 1.01 ± 0.01 |
| O=S1(=O)N(CCN2CC=C(c3c[nH]c4cc(F)ccc34)CC2)c2cccc3c2N1CCC3 | 0.9817 ± 0.0072 | 0.932 ± 0.027 | 0.9923 ± 0.0076 | 1.05 ± 0.092 | 0.9943 ± 0.0032 | 1.002 ± 0.0076 |
| CCN(CC)C(=O)c1ccc(C2=CC3(CCNCC3)Oc3cccc(O)c32)cc1 | 1.01 | 1.04 ± 0.015 | 1.01 ± 0.019 | 1.053 ± 0.0058 | 1.01 ± 0.01 | 1.01 |
| CCn1cnc2c(Nc3cccc(Cl)c3)nc(N[C@@H]3CCCC[C@@H]3N)nc21 | 0.783 ± 0.025 | 0.0569 ± 0.018 | 1.01 ± 0.011 | 0.182 ± 0.0028 | 0.321 ± 0.043 | 0.0192 ± 0.0037 |
| Clc1ccc(N2CCN(Cc3c[nH]c4ncccc34)CC2)cc1 [L-745,870 hydrochloride] | 0.9937 ± 0.0067 | 0.924 ± 0.025 | 1.01 ± 0.015 | 1.04 ± 0.058 | 1.005 ± 0.0081 | 1.01 ± 0.011 |
| O=c1[nH]c2ccc(Cl)cc2c(N[C@@H]2CN3CCC2CC3)c1-c1nc2ccccc2[nH]1 | 0.43 ± 0.0081 | 0.0244 ± 0.0034 | 0.717 ± 0.02 | 0.0576 ± 0.015 | 0.0195 ± 0.0053 | 0.00294 ± 0.0014 |

| Compound | normalised cell viability [1] | normalised cell viability [2] | normalised cell viability [3] | normalised cell viability [4] | normalised cell viability [5] | normalised cell viability [6] |
| --- | --- | --- | --- | --- | --- | --- |
| CNCC(O)c1ccc(O)cc1 (configuration not stated) [Synephrine HCl] | 1 ± 0.0095 | 1.04 ± 0.01 | 1 ± 0.019 | 1.05 ± 0.011 | 1.007 ± 0.0058 | 0.9953 ± 0.0072 |
| CNCC(O)c1ccc(O)cc1 (configuration not stated) [Synephrine] | 1.01 ± 0.01 | 1.04 ± 0.02 | 1.013 ± 0.0058 | 1.04 | 1.01 | 1.001 ± 0.0076 |
| C#CCOC(=O)C1=CCCN(C)C1 [Arecaidine propargyl ester hydrobromide] | 0.9933 ± 0.0059 | 1.013 ± 0.0058 | 0.982 ± 0.0053 | 0.998 ± 0.032 | 0.987 ± 0.0044 | 0.9863 ± 0.0055 |
| O=C(Cc1ccc(Cl)c(Cl)c1)N1CCCCC1CN1CCCC1 (configuration not stated) | 0.9847 ± 0.0031 | 0.965 ± 0.016 | 1 ± 0.018 | 1.01 ± 0.013 | 0.9753 ± 0.0031 | 0.9723 ± 0.0075 |
| O=C(OC1CCN(CCCl)CC1)C(c1ccccc1)c1ccccc1 [4-Diphenylacetoxy-N-(2-chloroethyl)piperidine hydrochloride] | 1 ± 0.022 | 0.926 ± 0.026 | 1.02 ± 0.021 | 0.962 ± 0.033 | 1.007 ± 0.0058 | 1.01 |
| CC(C)C[C@H]1C(=O)N2CCC[C@H]2[C@]2(O)O[C@](NC(=O)[C@@H]3C=C4c5cccc6[nH]c(Br)c(c56)C[C@H]4N(C)C3)(C(C)C)C(=O)N12 [(+)-Bromocriptine methanesulfonate] | 1.005 ± 0.0081 | 1.02 ± 0.015 | 1.003 ± 0.0061 | 1.01 ± 0.017 | 0.9857 ± 0.007 | 1.003 ± 0.0058 |
| c1ccc(CCCN2CCN(CCOC(c3ccccc3)c3ccccc3)CC2)cc1 | 0.952 ± 0.0092 | 0.893 ± 0.03 | 0.987 ± 0.007 | 1.02 ± 0.011 | 1.007 ± 0.0058 | 1.01 ± 0.012 |
| C=CCN1CC[C@]23c4c5ccc(O)c4O[C@H]2/C(=N/N=C2\CC[C@@]4(O)[C@H]6Cc7ccc(O)c8c7[C@@]4(CCN6CC=C)[C@H]2O8)CC[C@@]3(O)[C@H]1C5 [Naloxonazine dihydrochloride] | 0.9893 ± 0.008 | 1.03 ± 0.02 | 1 ± 0.01 | 1.03 ± 0.064 | 0.9877 ± 0.0015 | 1.01 ± 0.01 |
| COc1cc(C(O)CN)ccc1O (racemic) [(±)-Normetanephrine hydrochloride] | 0.9973 ± 0.0025 | 1.01 ± 0.021 | 1.01 ± 0.01 | 0.867 ± 0.27 | 0.9953 ± 0.0045 | 1 ± 0.016 |
| CN1[C@@H]2CC[C@H]1C[C@@H](OC(=O)C(CO)c1ccccc1)C2 (some centres not stated) [Atropine sulfate monohydrate] | 1.03 ± 0.015 | 0.981 ± 0.017 | 1.03 ± 0.011 | 1.01 ± 0.021 | 1.01 ± 0.01 | 0.9913 ± 0.0015 |
| CN1[C@@H]2CC[C@H]1C[C@@H](OC(=O)C(CO)c1ccccc1)C2 (some centres not stated) [Atropine sulfate] | 0.9843 ± 0.0045 | 0.945 ± 0.0076 | 0.994 ± 0.015 | 0.982 ± 0.04 | 1 ± 0.0095 | 1.003 ± 0.0058 |
| c1ccc(C2CC2)c(OCC2=NCCN2)c1 [Cirazoline hydrochloride] | 0.999 ± 0.011 | 0.99 ± 0.012 | 0.983 ± 0.014 | 0.971 ± 0.015 | 0.986 ± 0.0036 | 0.9877 ± 0.0074 |
| CN1[C@@H]2CC[C@H]1C[C@@H](OC(c1ccccc1)c1ccccc1N)C2 (some centres not stated) [Aminobenztropine] | 0.9897 ± 0.0095 | 0.95533 ± 0.00058 | 0.9983 ± 0.0015 | 0.969 ± 0.0014 | 1.013 ± 0.0058 | 1.02 ± 0.049 |
| NCC(CP(=O)(O)O)c1ccc(Cl)cc1 (configuration not stated) [Phaclofen] | 0.9913 ± 0.0025 | 0.981 ± 0.014 | 1.01 ± 0.013 | 0.9627 ± 0.0025 | 0.9813 ± 0.0038 | 0.992 ± 0.007 |
| COc1ccc(C(CN(C)C)C2(O)CCCCC2)cc1 (configuration not stated) [Venlafaxine] | 1 ± 0.012 | 0.964 ± 0.032 | 1 ± 0.023 | 0.976 ± 0.019 | 1 ± 0.0087 | 0.9967 ± 0.0058 |
| CCN(CCCl)Cc1ccccc1Br [DSP-4 hydrochloride] | 1.01 ± 0.01 | 0.979 ± 0.015 | 1.013 ± 0.0058 | 0.9985 ± 0.0021 | 0.995 ± 0.0087 | 0.996 ± 0.0069 |
